Data published in the supplement of paper PMC8512760.
Some of the results follow. Repeats are few or missing, and single values can be far off.

Key:
Assay in all cases: cell viability relative to vehicle (% of vehicle); basal-like triple-negative breast cancer lines; higher = less cytotoxic
Conditions in all cases: 10 µM; 72 h
HCC-1143 = tested on: HCC-1143
HCC-1187 = tested on: HCC-1187
MDA-468 = tested on: MDA-468
SUM-149 = tested on: SUM-149
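Also: stably firefly luciferase-GFP labeled cells in 96-well plates, viability read as luciferase photon flux after d-luciferin addition, treated wells normalized to vehicle wells, single-dose high-throughput screen.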

| Structure (SMILES) | cell viability (HCC-1143) | cell viability (HCC-1187) | cell viability (MDA-468) | cell viability (SUM-149) |
| --- | --- | --- | --- | --- |
| CN(C)c1ccc(O)c2c1CC1CC3C(N(C)C)C(=O)C(C(N)=O)=C(O)C3(O)C(=O)C1=C2O.Cl (stereo unspecified) [Minocycline HCl] | 116 | 107 | 81.9 | 48 |
| C#CC1(O)CCC2C3CCc4cc(OC)ccc4C3CCC21C (stereo unspecified) [Mestranol] | 78.8 | 103 | 179 | 106 |
| COC(=O)Nc1nc2ccc(S(=O)c3ccccc3)cc2[nH]1 (stereo unspecified) [Oxfendazole] | 87.2 | 72.7 | 89.9 | 107 |
| Cc1c(C(=O)NN2CCCCC2)nn(-c2ccc(Cl)cc2Cl)c1-c1ccc(Cl)cc1 [Rimonabant] | 85.1 | 78.2 | 92.5 | 124 |
| CCCC1O[C@@H]2C[C@H]3[C@@H]4CCC5=CC(=O)C=C[C@]5(C)[C@H]4[C@@H](O)C[C@]3(C)[C@]2(C(=O)CO)O1 (stereo partly specified) [Budesonide] | 83.9 | 90.8 | 161 | 155 |
| CC12CC3CC(C)(C1)CC(N)(C3)C2.Cl [Memantine hydrochloride] | 78.6 | 96.7 | 131 | 113 |
| O=C(O)c1cc(=O)c2ccccc2o1 [Chromocarb] | 74.5 | 98.1 | 92 | 77.1 |
| CCCCCCCCCCCC(CC1OC(=O)C1CCCCCC)OC(=O)C(CC(C)C)NC=O (stereo unspecified) [Orlistat] | 72.3 | 101 | 112 | 84.6 |
| CCOc1cc(CC(=O)NC(CC(C)C)c2ccccc2N2CCCCC2)ccc1C(=O)O (stereo unspecified) [Repaglinide] | 76.3 | 105 | 91.5 | 121 |
| COc1ccc(-c2nc3ccc(C4=NNC(=O)CC4C)cc3[nH]2)cc1 (stereo unspecified) [Pimobendan] | 91.3 | 83 | 84.2 | 104 |
| O=C(CS(=O)Cc1ccco1)NCC=CCOc1cc(CN2CCCCC2)ccn1 (stereo unspecified) [Lafutidine] | 90.5 | 94.7 | 102 | 133 |
| CCCC(=O)Nc1ccc(OCC(O)CNC(C)C)c(C(C)=O)c1.Cl (stereo unspecified) [Acebutolol HCl] | 97.8 | 112 | 102 | 92.4 |
| O=c1oc2c(O)c(O)cc3c(=O)oc4c(O)c(O)cc1c4c23 [Ellagic acid] | 92.4 | 112 | 91.7 | 112 |
| O=C(O)c1ccccc1 [Benzoic Acid] | 97.7 | 124 | 118 | 102 |
| CC(Cc1ccc(O)c(O)c1)(NN)C(=O)O (stereo unspecified) [Carbidopa] | 130 | 101 | 88.5 | 106 |
| COCCCOc1ccnc(C[S+]([O-])c2nc3ccccc3[nH]2)c1C (stereo unspecified) [Rabeprazole sodium] | 142 | 103 | 158 | 178 |
| Cc1ncc(C[n+]2csc(CCO)c2C)c(N)n1.Cl.[Cl-] [Thiamine HCl (Vitamin B1)] | 70.2 | 87 | 107 | 63.1 |
| CCc1c(Cl)c(O)c(Cl)c(O)c1C(=O)OC1C(C)OC(OCC2=CC=CCC(O)C(C)=CC(CC)C(OC3OC(C)(C)C(OC(=O)C(C)C)C(O)C3O)C(C)=CC(C)=CCC(C(C)O)OC2=O)C(OC)C1O (stereo unspecified) [Fidaxomicin] | 70.4 | 103 | 94.5 | 110 |
| NCC1CCC(C(=O)O)CC1 (stereo unspecified) [Tranexamic Acid] | 89.4 | 110 | 118 | 108 |
| C=C[C@]1(C)C[C@@H](OC(=O)CSC2C[C@H]3CC[C@@H](C2)N3C)[C@]2(C)[C@H](C)CC[C@]3(CCC(=O)[C@H]32)[C@@H](C)[C@@H]1O (stereo partly specified) [Retapamulin] | 72.6 | 72 | 111 | 103 |
| CC1=C2N=C(C=C3N=C(C(C)=C4[N-]C(C)(C5N=C1C(C)(CCC(=O)NCC(C)OP(=O)([O-])OC1C(CO)OC(n6cnc7cc(C)c(C)cc76)C1O)C5CC(N)=O)C(C)(CC(N)=O)C4CCC(N)=O)C(C)(CC(N)=O)C3CCC(N)=O)C(C)(C)C2CCC(N)=O.[CH3-].[Co+3] (stereo unspecified) [Methylcobalamin] | 77.9 | 89.4 | 117 | 124 |
| OC[C@@H](O)[C@@H](O)[C@H](O)[C@H](O)CO [D-Mannitol] | 79.9 | 94.6 | 101 | 90.6 |
| C=CC(=O)N1CCCC(n2nc(-c3ccc(Oc4ccccc4)cc3)c3c(N)ncnc32)C1 (stereo unspecified) | 105 | 58.6 | 55.8 | 71.5 |
| COc1cccc2c1C(=O)c1c(O)c3c(c(O)c1C2=O)C[C@@](O)(C(C)=O)C[C@@H]3O[C@H]1C[C@H](N)[C@H](O)[C@H](C)O1.Cl [Daunorubicin HCl] | 20.3 | 22.9 | 32.4 | 26.5 |
